# About 2,200 (0.55%) of roughly 400,000 compounds were called active. Inconclusive results (about 1%) are left out. Calls come from the whole dose curve; as a rule, active = well fitted inhibition curve with a large enough effect; inconclusive = small, poorly fitted or top-dose-only effect, or another doubt; inactive = no such curve, though single readings can be large or run the other way. The entries are a selection whose mix differs from that of the whole data set. A structure can be active in one record and inactive in another. Positions of bridges follow the written chain, without caps; N, C: chain ends. Residues, ends and D or L forms follow the SMILES beside them.
# Biological target: DNA polymerase kappa (Homo sapiens) (UniProt Q9UBT6)
# Test: qHTS for Inhibitors of Polymerase Kappa
# Conditions: purified Pol kappa, fluorescent DNA synthesis assay, 10 min; series mostly up to 107 µM; activity, negative = inhibition: at the top concentration
# How it was run: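 Here, compound and 10 nM enzyme are combined for 15 min at room temperature; adding 50 nM substrate (final) starts DNA synthesis, tracked by fluorescence at 0 and 10 min against buffer-only wells.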
# % is set by controls: 0 for no effect and ±100 for the full control effect; potency is the fitted concentration of half-maximal effect.
# Chain of UniProt Q9UBT6 (Q9UBT6 whole entry, looked up): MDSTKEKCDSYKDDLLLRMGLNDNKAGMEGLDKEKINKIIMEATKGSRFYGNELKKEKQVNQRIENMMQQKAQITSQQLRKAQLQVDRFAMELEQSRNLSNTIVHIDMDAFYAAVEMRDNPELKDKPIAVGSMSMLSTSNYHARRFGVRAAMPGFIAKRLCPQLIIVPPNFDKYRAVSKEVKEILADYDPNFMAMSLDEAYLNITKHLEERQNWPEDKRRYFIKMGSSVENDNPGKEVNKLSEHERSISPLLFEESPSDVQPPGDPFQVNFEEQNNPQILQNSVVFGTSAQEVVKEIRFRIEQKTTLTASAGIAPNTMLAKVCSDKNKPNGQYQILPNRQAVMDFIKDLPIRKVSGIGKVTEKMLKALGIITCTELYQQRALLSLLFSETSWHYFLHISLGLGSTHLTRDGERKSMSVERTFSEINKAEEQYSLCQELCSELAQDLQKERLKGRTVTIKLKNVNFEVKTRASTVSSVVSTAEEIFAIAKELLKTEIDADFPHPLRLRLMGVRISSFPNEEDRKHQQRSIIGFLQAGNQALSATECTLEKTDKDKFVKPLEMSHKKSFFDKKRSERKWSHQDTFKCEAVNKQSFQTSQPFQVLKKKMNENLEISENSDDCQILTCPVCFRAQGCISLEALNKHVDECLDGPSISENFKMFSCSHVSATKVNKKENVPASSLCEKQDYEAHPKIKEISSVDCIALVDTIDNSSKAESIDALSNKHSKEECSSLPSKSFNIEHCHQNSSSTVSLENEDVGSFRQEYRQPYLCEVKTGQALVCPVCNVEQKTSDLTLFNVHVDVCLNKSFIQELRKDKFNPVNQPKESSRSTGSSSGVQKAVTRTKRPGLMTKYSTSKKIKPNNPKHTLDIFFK
Compound,Potency,"activity, negative = inhibition"
CC(=O)N[C@@H](Cc1c[nH]c2ccccc12)C(=O)OCc1cc(C(F)(F)F)cc(C(F)(F)F)c1,inactive,–
Cc1ccc(CNC(=O)CCc2c(C)nn(-c3ccc(N4CCCC4)nn3)c2C)cc1,–,inactive: 39%
CC(=O)Nc1c(N)[nH]c(=O)n(C)c1=O,–,inactive: 11.5% [at 60.1 µM]
N[C@@H](CO)C(=O)O,–,inactive: -7.49% [at 19.4 µM]
c1coc(-c2nc3cc4ccccc4cc3nc2-c2ccco2)c1,active: 39.8 µM,–
OCCN1CCN(CC/C=C2\c3ccccc3Sc3ccc(C(F)(F)F)cc32)CC1,–,inactive: -8.78% [at 12 µM]
CCC(/C=C1\Sc2ccc(OC)cc2N1CCO)=C\c1sc2ccc(OC)cc2[n+]1CCO,–,inactive: 1.06% [at 60.1 µM]
COC(=O)C1C(O)CCC2CN3CCc4c([nH]c5ccccc45)C3CC21 (stereo unspecified),–,inactive: -7.28%
CCOC(=O)C1=C(C)c2ccccc2OC1C(=O)OCC (stereo unspecified),–,inactive: -11.1%
CC(C)[C@H](NC(=O)OCc1ccccc1)C(=O)OCC(=O)NCc1ccco1,–,inactive: -24.8%
C[C@@H]1CCC[C@]2(C)CCCC[C@@]12O,–,inactive: 18.6% [at 60.1 µM]
CC(C)[C@H](NC(=O)[C@@H]1CSSC[C@H](NC(=O)[C@H](CC(=O)O)NC(=O)[C@H](C)NC(=O)[C@@H](NC(=O)CNC(=O)[C@H](C)N)[C@@H](C)O)C(=O)N[C@@H](Cc2ccccc2)C(=O)N[C@@H](Cc2c[nH]c3ccccc23)C(=O)N[C@@H](CCCCN)C(=O)N[C@@H](Cc2ccc(O)cc2)C(=O)N1)C(=O)O (H-AGTADCFWKYCV-OH; disulfide 6-11),–,inactive: 16.4% [at 60.1 µM]
C[C@H]1CCC[C@@]2(C)CCCC[C@]12O,–,inactive: 9.76% [at 60.1 µM]
CCOC(=O)c1ccc(NC(=O)c2cc3c(n(-c4ccc(C)cc4)c2=O)CC(C)(C)CC3=O)cc1,active: 89.1 µM,–
CC1CN(C(=O)c2cc(-c3ccncc3)nc3ccccc23)CC(C)O1 (stereo unspecified),–,inactive: 28%
COc1cccc2oc(-c3ccccc3)cc(=O)c12,inactive,–
COc1cc(NCc2ccc3nc(N)nc(N)c3c2C)cc(OC)c1OC,–,inactive: -8.38% [at 19.4 µM]
COc1ccc(-c2ccc([C@H]3[C@H]4C=CC[C@@H](C)[C@@H]4C(=O)N3Cc3ccccc3)c(F)c2)cc1C,–,inactive: -2.52%
C1=Cc2ccccc2/C1=C\c1cc[cH-]c1.[Fe+2].c1cc[cH-]c1,active: 1.12 µM,–

Compound,Potency,"activity, negative = inhibition"
C[C@](N)(Cc1ccc(O)c(O)c1)C(=O)O,–,inactive: -9.93% [at 19.4 µM]
COc1cc(O)c(C(CC(=O)N2CCCC2)c2cc(OC)c(OC)c(OC)c2)c(OC)c1 (stereo unspecified),–,inactive: 10.2%
CN(C)[C@@H]1C(=O)C(C(N)=O)=C(O)[C@]2(O)C(=O)C3=C(O)c4c(O)ccc(Cl)c4[C@H](O)[C@H]3C[C@@H]12,–,inactive: -2.8% [at 12 µM]
CSc1cc2c(cc1C(F)(F)F)N(C(=O)Nc1cccnc1)CC2,inactive,–
CCCCN(C(=O)c1cc2c(s1)CCC2)c1c(N)n(CC(C)C)c(=O)[nH]c1=O,active: 79.4 µM,–
CC(=O)Oc1ccccc1C(=O)O,inactive,–
CCOc1cc(/C=N/NC(=O)c2ccc(-c3csc(Nc4ccc(C)cc4)n3)cc2)ccc1OCC(=O)O,active: 31.6 µM,–
CCOC(=O)[C@@H]1[C@H]2COc3cc(OC)ccc3[C@@H]2N2C(=O)N(c3cccc(F)c3)C(=O)[C@]12C,–,inactive: -4.65%
O=C(Nc1cccc(Cl)c1)OCC#CCCl,active: 26.7 µM,–
O=C(O)c1cc(=O)c2cc(Cl)ccc2[nH]1,–,inactive: 17.8% [at 60.1 µM]
CC1=C(/C=C/C(C)=C/C=C/C(C)=C/C(=O)O)C(C)(C)CCC1,inactive,–
O=C1NC(=Nc2ccccc2)S/C1=C\C=C\c1ccco1,active: 20 µM,–
CC(OC(=O)/C(C#N)=C/c1ccc(N(C)C)cc1)C(=O)N(C)c1ccccc1 (stereo unspecified),active: 79.4 µM,–
COc1ccc(S(=O)(=O)/N=C2/NC(=O)/C(=C/c3ccco3)S2)cc1,–,inactive: -10.5%
CCCCCCCCCCCCCCCC(O)C(N)CO (stereo unspecified),–,inactive: 9.66%
COC(=O)[C@@H]1OC(c2ccccc2)O[C@H]1C(=O)OC,–,inactive: 19.4% [at 60.1 µM]
Cc1cc(C)c2c(c1)C1C=CCC1C(C(=O)O)N2 (stereo unspecified),active: 28.2 µM,–
COc1cc(OC)c2c(-c3cccc(-c4cccc(C)c4)c3)cc(=O)oc2c1,–,inactive: -6.9%
CCCCCC1=C(C(=O)OC)C(C(=O)OCC)N(S(=O)(=O)C(F)(F)F)c2ccccc21 (stereo unspecified),–,inactive: -0.994%

Compound,Potency,"activity, negative = inhibition"
Cc1cccc(NC(=O)CC2Nc3cccc4cccc(c34)NC2=O)c1 (stereo unspecified),–,inactive: -24.7%
Cc1nc2ccn(Cc3cccnc3)c(=O)c2cc1C(=O)N1CCN(c2ccccc2F)CC1,–,inactive: 28.1%
O=C1OCCN1C(=O)[C@H]1[C@H](c2ccc(F)cc2)C(c2cccc(Cl)c2)=NN1c1ccccc1,–,inactive: 0.846%
COc1ccc(NC(=O)/C=C/c2ccc(Br)o2)cn1,active: 79.4 µM,–
O=C(N/N=C/c1ccc(Sc2ccccn2)o1)c1cc2ccccc2cc1O,active: 28.2 µM,–
CC1(C)S[C@@H]2[C@H](NC(=O)[C@@H](N)c3ccc(O)cc3)C(=O)N2[C@H]1C(=O)O,–,inactive: -4.4% [at 12 µM]
C[C@]12CC[C@@H]3c4ccc(O)cc4CC[C@H]3[C@@H]1CC[C@@H]2O,inactive,–
O=C(OCCC12CC3CC(CC(C3)C1)C2)c1ccc(NCc2cc(O)ccc2O)cc1,active: 79.4 µM,–
O=C(O)c1cccc(-n2cccc2/C=C/[N+](=O)[O-])c1,active: 14.1 µM,–
COc1cc(C2Oc3cc(C4Oc5cc(O)cc(O)c5C(=O)C4O)ccc3OC2CO)ccc1O (stereo unspecified),inactive,–
O=c1cc2oc3cc(O)c(O)cc3c(-c3ccccc3O)c-2cc1O,active: 4.47 µM,–
Cc1ccc(C)c(N2CCN(S(=O)(=O)c3csc(C(N)=O)c3)CC2)c1,–,inactive: -6.74%
OC[C@@H](O)C(O)[C@@H](O)CO (stereo partly specified),–,inactive: 14.8% [at 60.1 µM]
COc1ccc(C(=O)N/C(=C/c2cccc3ccccc23)C(=O)NCCc2c[nH]c3ccccc23)cc1OC,–,inactive: -20.7%
COc1ccc([C@H]2OCC3C2CO[C@@H]3c2ccc(OC)c(OC)c2)cc1OC (stereo partly specified),–,inactive: 15.4% [at 60.1 µM]
O=[N+]([O-])c1ccc(-c2nc(-c3ccc(F)cc3)c(-c3ccncc3)[nH]2)cc1,–,inactive: -0.545% [at 60.1 µM]
O=S1(=O)CCOC[C@H](c2ccccc2)N1Cc1cccc(Cl)c1,–,inactive: -2.79%
CC(=O)[C@@]1(O)CC[C@H]2[C@H]3C[C@@H](C)C4=CC(=O)C=C[C@]4(C)[C@@]3(F)[C@@H](O)C[C@]21C,–,inactive: -4.29% [at 12 µM]

# From PubChem BioAssay AID588579 (National Center for Advancing Translational Sciences (NCATS), 2011)
